Measurements taken from PubChem BioAssay AID720709 (National Center for Advancing Translational Sciences (NCATS), 2013).
Screen size: about 360,000 compounds; about 520 (0.14%) were called active. This list was built around the results that the source calls inconclusive (neither active nor inactive); the mix of calls is not that of the screen. The call rests on the fitted dose curve; in most records, active means well fitted inhibition curve with a large enough effect; inconclusive means small, poorly fitted or top-dose-only effect; inactive means no such curve, though single readings can be large or run the other way. Where the call is inconclusive, the potency comes from a doubtful curve fit.

Target: Rap guanine nucleotide exchange factor 3 (Homo sapiens) (UniProt O95398)
Assay: qHTS for Antagonist of cAMP-regulated guanine nucleotide exchange factor 3 (EPAC1): primary screen; further: nearly all actives have a fitted effect of over 50% in size;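 on activity change, negative = inhibition: plate controls were vehicle for no effect and positive control for full effect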
Conditions: EPAC1 GEF assay, Rap1b-BODIPY-GDP exchange fluorescence; activity change, negative = inhibition: at 115 µM (top of the series)
Potency means the concentration at half of the fitted maximal effect; tags describe the fitted curve by direction and shape.

Sequence of UniProt O95398 (O95398 whole entry, looked up): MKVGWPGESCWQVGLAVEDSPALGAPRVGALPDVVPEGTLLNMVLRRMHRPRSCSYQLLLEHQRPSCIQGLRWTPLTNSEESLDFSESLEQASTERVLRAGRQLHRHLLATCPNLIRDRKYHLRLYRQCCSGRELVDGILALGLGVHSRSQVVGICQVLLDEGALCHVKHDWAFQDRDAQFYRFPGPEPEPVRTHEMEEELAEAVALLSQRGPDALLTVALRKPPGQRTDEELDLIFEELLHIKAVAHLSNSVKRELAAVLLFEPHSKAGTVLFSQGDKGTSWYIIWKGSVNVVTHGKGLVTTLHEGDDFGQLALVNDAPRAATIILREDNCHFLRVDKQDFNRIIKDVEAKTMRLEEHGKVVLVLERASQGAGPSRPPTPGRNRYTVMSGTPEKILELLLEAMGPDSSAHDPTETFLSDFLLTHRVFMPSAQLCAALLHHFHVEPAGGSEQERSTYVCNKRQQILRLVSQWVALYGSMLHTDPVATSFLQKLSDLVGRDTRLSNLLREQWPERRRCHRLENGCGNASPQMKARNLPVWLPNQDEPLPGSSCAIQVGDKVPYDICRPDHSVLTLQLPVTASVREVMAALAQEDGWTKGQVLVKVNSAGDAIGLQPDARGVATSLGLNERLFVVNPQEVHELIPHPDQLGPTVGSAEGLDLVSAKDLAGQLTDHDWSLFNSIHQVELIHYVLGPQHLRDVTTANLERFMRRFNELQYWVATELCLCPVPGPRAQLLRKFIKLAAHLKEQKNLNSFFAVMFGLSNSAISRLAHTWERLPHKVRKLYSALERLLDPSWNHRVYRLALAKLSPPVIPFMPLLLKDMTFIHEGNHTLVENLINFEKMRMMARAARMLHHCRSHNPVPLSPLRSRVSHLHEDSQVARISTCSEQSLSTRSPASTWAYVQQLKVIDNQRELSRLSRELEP

Potency, inconclusive:
C=C(C)CN(CC)C(=O)CN1C(=O)NC2(CCc3ccccc32)C1=O (configuration not stated) 89.1 µM [inhibitor, partial curve, poor fit]
O=C(Nc1ccc(F)cc1)c1ccc(-n2cncn2)c([N+](=O)[O-])c1 89.1 µM [inhibitor, single point]
COc1ccc(NC(=O)CN(C)C(=O)c2cccc(-n3cccc3)c2)cc1 89.1 µM [inhibitor, single point]
Cc1ccc(NC(=O)COC(=O)c2ccccc2Cl)cc1S(=O)(=O)N(C)C 89.1 µM [inhibitor, single point]
CN(CC(=O)Nc1cccc(Cl)c1)S(=O)(=O)c1ccc2c(c1)n(C)c(=O)c(=O)n2C 2.82 µM [inhibitor, full curve, poor fit]
O=C(COC(=O)c1ccc([N+](=O)[O-])s1)NC(=O)NCc1ccccc1 50.1 µM [inhibitor, partial curve]
O=C(CNc1cccc([N+](=O)[O-])c1)NCCCc1ccccc1 35.5 µM [inhibitor, single point]
O=C(COC(=O)Cn1cnc2ccccc21)Nc1ccc(OC(F)F)cc1 89.1 µM [inhibitor, single point]
CCN1C(=O)N[C@@H](c2ccccc2)C(C(=O)OC)=C1C 89.1 µM [inhibitor, single point]
CS(=O)(=O)N1N=C(c2cccs2)CC1c1ccccc1O (configuration not stated) 3.55 µM [inhibitor, full curve]
CCOC(=O)N1CCC(N2C(=O)c3ccccc3C2Nc2ccc(S(=O)(=O)N(CC)CC)cc2)CC1 (configuration not stated) 39.8 µM [inhibitor, single point]
Cc1ccc(/C=C(\C#N)c2nn(-c3ccccc3)c(N)c2C#N)cc1 39.8 µM [inhibitor, partial curve]
O=C(COC(=O)c1cccc(S(=O)(=O)N2CCCC2)c1)Nc1ccccc1C(F)(F)F 25.1 µM [inhibitor, partial curve]
O=C1NC(=O)/C(=C\c2ccc(O)cc2O)S1 79.4 µM [inhibitor, partial curve]
CC(CCc1ccccc1)NC(=O)CNc1cccc([N+](=O)[O-])c1 (configuration not stated) 79.4 µM [inhibitor, single point]
N#Cc1c(SCC(=O)Nc2cccc(C(F)(F)F)c2)sc2c(O)cc(=O)[nH]c12 44.7 µM [inhibitor, partial curve]
CCc1ccc(/C(C)=N/NC(=O)CNC(=O)/C=C/c2ccco2)cc1 44.7 µM [inhibitor, full curve]
COc1ccc(OCCCC(=O)N2CCN(S(=O)(=O)c3cccc(F)c3)CC2)cc1 3.55 µM [inhibitor, full curve, poor fit]
COc1ccc(/C=N/NC(=O)c2nn(-c3ccccc3)c(=O)c3c(N)scc23)cc1 79.4 µM [inhibitor, single point]
CN(CC(=O)Nc1cccc(F)c1)CC(=O)Nc1ccccc1Oc1ccccc1 3.98 µM [inhibitor, full curve, poor fit]
CCn1cc(S(=O)(=O)Nc2ccccc2C(F)(F)F)cn1 22.4 µM [inhibitor, partial curve]
CCn1c(SCC(=O)N/N=C/c2ccccc2OCC(=O)O)nnc1-c1ccc(C(C)(C)C)cc1 56.2 µM [inhibitor, partial curve]
Cc1ccc(S(=O)(=O)Nc2ccc(C(OC(=O)c3ccccc3[N+](=O)[O-])(C(F)(F)F)C(F)(F)F)cc2)cc1 11.2 µM [inhibitor, full curve, poor fit]
Cc1ccc(C)c(S(=O)(=O)N2CCN(C(=O)CCC(=O)NCc3ccc(Cl)cc3)CC2)c1 3.16 µM [inhibitor, full curve, poor fit]
O=C(O)c1ccccc1NS(=O)(=O)c1ccc(NN=Cc2ccccc2F)c([N+](=O)[O-])c1 10 µM [inhibitor, full curve]
CCc1ccc(/C=C2\SC(=S)N(CCC(=O)Nc3cc(C)on3)C2=O)cc1 89.1 µM [inhibitor, single point]
CCn1c(=O)c(=O)[nH]c2c(=O)oc3ccc(S(=O)(=O)Nc4ccc(OC)cc4)cc3c21 89.1 µM [inhibitor, single point]
O=c1c2cc([N+](=O)[O-])ccc2nc(CN2CCN(c3ccccn3)CC2)n1-c1ccccc1F 100 µM [inhibitor, single point]
CCc1cccc(NC(=O)Cn2c(=O)c3cccn3c3ccccc32)c1 39.8 µM [inhibitor, single point]
CCC1(C)Cc2nc3[nH]c(=S)n(-c4ccccc4C)c(=O)c3cc2CO1 (configuration not stated) 100 µM [inhibitor, single point]
O=[N+]([O-])c1cc(-c2ccccc2)cc([N+](=O)[O-])c1O 79.4 µM [inhibitor, partial curve]
Oc1ccc2ccccc2c1C1Nc2cccc3cccc(c23)N1 31.6 µM [inhibitor, full curve, poor fit]
Cc1ccc2nsnc2c1S(=O)(=O)NCc1ccc2c(c1)OCO2 11.2 µM [inhibitor, partial curve]
CCCOc1ccc(-c2c(C(=O)N/N=C(\C)c3cccs3)nnn2-c2nonc2N)cc1 35.5 µM [inhibitor, partial curve]
Clc1ccccc1-c1ccc2ncnc(NCc3cccs3)c2c1 89.1 µM [inhibitor, single point]
O=C(NCC(c1cccnc1)N1CCN(c2ccc(F)cc2)CC1)OCc1ccccc1 (configuration not stated) 89.1 µM [inhibitor, single point]
COc1ccc(NC(=O)c2cc(-c3ccco3)nc3ccccc23)cc1S(=O)(=O)N1CCOCC1 79.4 µM [inhibitor, partial curve]
COc1cc(O)c(C=NN2C(=O)CSC2=S)c(OC)c1 56.2 µM [inhibitor, partial curve]
COc1ccc(C(C(=O)Nc2c(C)cccc2C)n2c(=O)c(-c3ccco3)nc3ccccc32)cc1 (configuration not stated) 79.4 µM [inhibitor, single point]
CC1(C)CCC[C@]2(C)[C@H]3Cc4cc(O)ccc4O[C@]3(C)CC[C@@H]12 56.2 µM [inhibitor, partial curve]
Cc1nc(NCCc2ccc(O)cc2)c2nnn(Cc3ccccc3)c2n1 100 µM [inhibitor, single point]
COc1cccc(NC(=O)C(=O)N/N=C/c2cc(C)n(-c3ccc(Cl)c(Cl)c3)c2C)c1 31.6 µM [inhibitor, partial curve]
Cc1cc(SCC(=O)c2ccccc2)n2nc(C)nc2n1 100 µM [inhibitor, single point]
CCN(CC)c1ccc(C(=O)O)cc1 14.1 µM [inhibitor, full curve, poor fit]
Cc1cccc(C2c3[nH]c4ccccc4c3CCN2Cc2cccn2-c2ncccn2)c1 (configuration not stated) 50.1 µM [inhibitor, partial curve, poor fit]

Activity change, negative = inhibition, inactive:
CCOc1ccc(-c2nc(=S)[nH][nH]2)cc1 -0.487%
CC(=O)Oc1ccc(Cl)cc1CN(C(C)=O)C1CCCCC1 13.1%
COc1ccc(C2CC2/C(=N/O)c2ccccc2)cc1 (configuration not stated) -0.799%
COC(=O)c1nccnc1N 4.81%
Cc1cccc(CN2CCN([C@H]3CS(=O)(=O)N[C@@H]3COCc3ccccc3)CC2)c1 -2.94%
CCOC(=O)N1CCC(NC(=O)c2cc3sccc3n2CC)CC1 -13%
CCCNc1ncnc2nc[nH]c12 0.254%
COc1cc(Nc2ccn3nc(-c4ccc(F)cc4)cc3n2)cc(OC)c1OC -12.5%
CC(=O)Cn1cnc2c(cnn2-c2ccc(C)c(C)c2)c1=O 6.9%
CC(=O)Nc1ccc(N2CCCC2)cc1 4.6%
CCc1nnc(NS(=O)(=O)c2ccc(NC(=S)NC(=O)c3ccccc3)cc2)s1 -8.74%
COc1ccccc1NC(=S)NCCc1c[nH]c2ccccc12 -20.3%
CN1C(=O)c2cccc3c(Cl)ccc(c23)C1=O 6.17%
O=C(CSc1ccc(Cl)cc1)NNC(=O)c1cccnc1 8.6%
CCNC(=O)C1(C)CCN(C(=O)c2cccc(Cl)c2)C1 (configuration not stated) 10.3%
NC(Cc1ccc(C(F)(F)F)cc1)c1csc(Nc2nncc3ccccc23)n1 (configuration not stated) -16.7%
CC(=O)N1CCc2cc(S(=O)(=O)CCC(=O)Nc3cc(C)cc(C)c3)ccc21 -25.2%
CC(C)(C)C(=O)Nc1ccc(C(=O)Nc2cccc(Oc3ccc(C(=O)O)c(C(=O)O)c3)c2)cc1 -8.25%
COCCCNC(=O)COc1ccc(S(=O)(=O)Nc2ccccc2)cc1 0.635%
O=C1CCCC2=C1C(c1ccc(Br)cc1)c1c([nH]c(=S)[nH]c1=O)N2 (configuration not stated) 10.2%
O=C(Cc1ccc([N+](=O)[O-])cc1)N1CCN(c2ccc([N+](=O)[O-])cc2)CC1 1.26%

Activity change, negative = inhibition, inconclusive:
O=[N+]([O-])c1ccc2oc(C(O)c3cccc(Cl)c3)cc2c1 (configuration not stated) -32.6% [inhibitor]
